About 4,300 (8.3%) of roughly 52,000 compounds were called active. Cut-off read from the data, not from the text of the source: active = survival mostly below about 52% (no sharp cut-off); inactive = mostly above about 56%. This is one part of the list.

The subject of this assay is DeltatarO mutant. Nature of the assay: S. aureus survival, RN4220 and DeltatarO strains – OD600, teichoic acid synthesis inhibitors, primary screen (AID 463173). Conditions: S. aureus RN4220 wild type/DeltatarO growth, OD600, 18 h, hits give low values, screened at 18.75 µg/mL (by protocol).
In the case of `O=C(C1CC(c2ccc(Cl)cc2)=NO1)N1CCCC1` (stereo unspecified), the survival is inactive: 85%.

On to `CC(=O)Nc1ccc(NC(=O)c2cccc(C)c2)cc1`, for which the survival was inactive: 85%.

Take `Cc1ccc(CCNC(=O)c2ccc3c(Cl)c4c(nc3c2)CCCC4)cc1`: the survival is inactive: 61%.

In the case of `CCCC(=O)Nc1ccccc1OCc1cc(=O)n2cc(C)ccc2n1`, the survival is inactive: 66%.

Consider `Cc1ccc(C)c(N2CCN(c3c(CN4CCCC4)c(=O)oc4ccccc34)CC2)c1`, for which the survival was inactive: 91%.

As for `COc1ccccc1CNC(=O)c1ccc2nc(N3CCCCC3)sc2c1`, the survival was inactive: 111%.

Consider `CC(=O)c1ccc(NS(=O)(=O)c2cccc(S(=O)(=O)c3ccc(Cl)cc3)c2)cc1`, for which the survival was inactive: 124%.

Take `CCOc1ccc(CCNC(=O)CN2CCN(Cc3ccc(Cl)cc3)C2=O)cc1OCC`: the survival is inactive: 69%.

On to `CCc1ccc(N(CC)C(=O)c2cc3c(=O)oc4ccc(C)cc4c3s2)cc1`, for which the survival is active: 42%.

As for `COc1cccc(NC(=O)C(=O)NCC(c2ccc3c(c2)OCO3)N2CCN(C)CC2)c1` (stereo unspecified), the survival is inactive: 67%.

In the case of `Cc1cccc(NC(=O)CSc2ccc(-c3ccccn3)nn2)c1`, the survival is inactive: 103%.

`Cc1cccc(C)c1Nc1nn2c(=O)c3cc4c(cc3nc2s1)OCO4`: the survival was inactive: 76%.

For the compound `COc1cccc(Cn2c(Oc3cc(C)cc(C)c3)nc3c2c(=O)n(C)c(=O)n3C)c1`, the survival is active: 31%.

Turning to `COc1ccc(CC(=O)N2CCc3cc(OC)c(OC)cc3C2COc2cc(C)cc(C)c2)cc1OC` (stereo unspecified), the survival is inactive: 120%.

Take `CCc1ccc(S(=O)(=O)N(C(=O)c2ccncc2)c2ccc3oc(C)c(C(=O)OC)c3c2)cc1`: the survival is inactive: 52%.

As to `Cc1cc(C)c(/C=N/NC(N)=O)c(C)c1/C=N/NC(N)=O`, the survival is inactive: 84%.

As for `CC(C)NC(=O)CN1CCN(c2ccc(F)cc2)CC1`, the survival was inactive: 87%.

As to `Cc1cc(C)cc(NC(=O)CCS(=O)(=O)c2cccc3nsnc23)c1`, the survival is inactive: 58%.

For the compound `COc1ccc2sc(N(Cc3cccnc3)C(=O)c3ccc4c(c3)OCCO4)nc2c1`, the survival is inactive: 101%.

Turning to `COc1ccccc1NC(=O)CC1COc2ccccc2O1` (stereo unspecified), the survival was inactive: 82%.

Regarding `COc1ccc(NC(=O)CCCSc2nc(-c3ccco3)cc(C(F)(F)F)n2)cc1OC`, the survival is inactive: 45%.

Regarding `CCCCN(CC)CCCNC(=O)c1cc2c(=O)[nH]c3ccccc3c2n1C`, the survival is inactive: 90%.

For the compound `COc1cccc(C(=O)Nc2cccc(OCc3cc(=O)n4c5c(sc4n3)CCCC5)c2)c1`, the survival was active: 51%.

On to `CC(=O)Nc1ccc(NS(=O)(=O)c2c(C(=O)N3CCC(C)CC3)c(C)n(C)c2C)cc1`, for which the survival was active: 20%.

As for `CCc1ccc(-c2cn3c(n2)sc2cc(C(=O)NC4CCCCC4)ccc23)cc1`, the survival was inactive: 87%.

Turning to `COc1cccc(-c2nc(S(=O)(=O)c3ccc(Cl)cc3)c(NCc3ccccc3)o2)c1`, the survival is inactive: 180%.

For the compound `COc1ccc2oc(=O)c(C(=O)NCCc3c(C)[nH]c4ccc(F)cc34)cc2c1`, the survival is inactive: 46%.

Take `COCCNc1oc(-c2ccccc2)nc1S(=O)(=O)c1ccc(Br)cc1`: the survival was inactive: 79%.

For `CS(=O)(=O)N(CCC(=O)O)Cc1ccccc1`, the survival was inactive: 87%.

For `COc1ccc(CNC(=O)CN(c2ccc(C(C)C)cc2)S(=O)(=O)c2c(C)nn(C)c2C)cc1`, the survival is inactive: 64%.

As to `COc1ccc(NC(=O)CSc2nc3ccccc3nc2N2CCC(C)CC2)cc1`, the survival was inactive: 45%.

Turning to `O=S(=O)(c1ccccc1)N1CCC(n2cnc3ccccc32)CC1`, the survival is inactive: 78%.

For `Cc1ccc(-c2nc(=O)[nH]c3ccccc23)cc1`, the survival is inactive: 102%.

In the case of `CCOC(=O)c1c(NC(C)=O)sc2c(NC(C)=O)cccc12`, the survival was inactive: 69%.

With `CCC(C(=O)OCc1cc(=O)n2nc(C)sc2n1)c1ccccc1` (stereo unspecified), the survival is inactive: 99%.

Regarding `Cc1cccc(-c2noc(CN(C3CCCCC3)S(=O)(=O)c3ccc(F)cc3)n2)c1`, the survival is inactive: 71%.

For the compound `C(=N\N(Cc1ccccc1)Cc1ccccc1)/c1ccco1`, the survival is inactive: 98%.

Turning to `COc1ccc(OC)c(NC(=O)c2c(NCc3sccc3C)sc3c2CCCCC3)c1`, the survival was inactive: 78%.

`COc1ccc2c(c1)-c1nc(NC(=O)c3ccc(OC)c(Br)c3)sc1CC2`: the survival was inactive: 59%.

As for `COc1ccc(CC(=O)NCCc2sc3nc(-c4ccc(OC)cc4)nn3c2C)cc1`, the survival is inactive: 80%.

Turning to `Cc1cc(C)c(C)c(OCC(=O)Nc2ccc(S(=O)(=O)Nc3nc(C)cc(C)n3)cc2)c1`, the survival was inactive: 51%.

As for `COc1ccccc1NC(=O)CCn1nc(-c2ccccc2OC)c2c(C)cc(C)nc21`, the survival is inactive: 104%.

Consider `Cc1ccccc1OCC(=O)OCc1cc(=O)n2nc(C3CC3)sc2n1`, for which the survival was inactive: 91%.

Consider `CCC(=O)N1CCc2cc(Br)cc(S(=O)(=O)CCC(=O)N3CCN(c4ccc(F)cc4)CC3)c21`, for which the survival is inactive: 139%.

Consider `O=C(CSC1=Nc2ccccc2N=C(c2ccc(F)cc2)C1)Nc1cccc(C(F)(F)F)c1`, for which the survival was inactive: 70%.

On to `COc1ccc(CN(Cc2ccccc2)Cc2nnnn2C(C)(C)C)cc1`, for which the survival was inactive: 63%.

With `CCOC(=O)C1CCCN(C(=O)C2CCN(S(=O)(=O)c3c(C)noc3/C=C/c3ccccc3F)CC2)C1` (stereo unspecified), the survival was inactive: 85%.

On to `CCc1ccc(NC(=O)CC2C(=O)N(c3cccc(C)c3)C(=O)N2CCC(C)C)cc1` (stereo unspecified), for which the survival was inactive: 88%.

Regarding `CC(C)OC(=O)C(C(=O)C(F)(F)F)c1cc(NS(=O)(=O)c2ccc3c4c(cccc24)C(=O)N3)ccc1O` (stereo unspecified), the survival was inactive: 64%.

As for `Cc1cccc(-c2nc3ccccc3n2Cc2ccccc2)c1`, the survival is active: 0%.

Turning to `CCNc1ncnc2c1nnn2C`, the survival was inactive: 55%.

For `CCOC(=O)c1c(C)[nH]c(CCC(=O)Nc2c(C)cccc2CC)c1C`, the survival was inactive: 67%.

`CCOC(=O)N1CCc2c(sc(NCc3cccc(F)c3)c2C(=O)Nc2ccc(OC)cc2OC)C1`: the survival is inactive: 98%.

In the case of `CCC(=O)Nc1ccccc1-c1nc2ccccc2n(CC(=O)c2ccc(Cl)cc2)c1=O`, the survival was active: 35%.

`Cc1ccc(S(=O)(=O)c2nnn3c2nc(NC(C)C)c2sccc23)cc1`: the survival was inactive: 83%.

For `O=C(/C=C/c1ccco1)Nc1cc(C(=O)O)cc(C(=O)O)c1`, the survival was inactive: 84%.

In the case of `CCCN(CCC)CCCNC(=O)c1cn(CC)c2ccc(S(=O)(=O)N(C)C3CCCCC3)cc2c1=O`, the survival was inactive: 94%.

As to `CCc1ccc(OCc2cc(=O)n3c4c(sc3n2)CCCC4)cc1`, the survival is inactive: 61%.

For the compound `COc1cccc(N2CCN(C(=O)C3Cc4ccccc4N3C(C)=O)CC2)c1` (stereo unspecified), the survival is inactive: 76%.

With `O=C(C1CCC1)N1CCCc2cc(S(=O)(=O)N3CCN(c4ccccc4)CC3)ccc21`, the survival was inactive: 81%.

Consider `Cc1ccc(S(=O)(=O)N2CCCc3cc(NS(=O)(=O)c4cc(F)ccc4F)ccc32)cc1`, for which the survival was inactive: 120%.

In the case of `CCN(CC)c1ccc2ccc(=O)oc2c1`, the survival was inactive: 79%.

Regarding `O=C(CCCn1c(=O)c2ccccc2n(Cc2cccc(Cl)c2)c1=O)NCCc1ccc(Cl)cc1`, the survival is inactive: 90%.

Turning to `Cn1c(=O)c(=O)n(C)c2cc(S(=O)(=O)N3CCN(c4ccc(F)cc4)CC3)ccc21`, the survival was inactive: 130%.

Regarding `COc1cc(C2CC(=O)c3cnc(N4CCN(CCO)CC4)nc3C2)cc(OC)c1OC` (stereo unspecified), the survival was inactive: 92%.

For `O=C(Cn1cc(S(=O)(=O)N2CCCC2)c(S(=O)(=O)N2CCCC2)c1)Nc1ccccc1`, the survival is inactive: 89%.

Regarding `O=C(Nc1cccc(NC(=O)c2ccccc2F)c1)c1ccccc1`, the survival was inactive: 77%.

For the compound `CC(C)c1ccc(NC(=O)CC2NCCNC2=O)cc1` (stereo unspecified), the survival was inactive: 78%.

With `CCCC(=O)Nc1cc(C(=O)NCc2ccccc2)ccc1S(=O)(=O)c1ccc(Cl)cc1`, the survival was inactive: 95%.

As to `O=C(CSc1nnc(-c2ccncc2)n1Cc1ccco1)N(c1ccccc1)c1ccccc1`, the survival is inactive: 71%.

Turning to `O=C(Cn1cnc2ccccc2c1=O)N1CCCCCC1`, the survival is inactive: 106%.

As to `COc1ccc2c(Sc3ccc(C)cc3)c(C(=O)NCc3ccc(F)cc3)[nH]c2c1`, the survival is inactive: 96%.

Regarding `C=CCCC1(C)NNc2nc(=O)c(C)nn21` (stereo unspecified), the survival was inactive: 100%.

As to `COc1ccccc1NC(=O)C1=C(C)Nc2nc(CCCO)nn2C1c1cccc(O)c1` (stereo unspecified), the survival is inactive: 144%.

As to `Nc1c(NCCN2CCOCC2)c2ccccc2oc1=O`, the survival is inactive: 82%.

Regarding `CC(=O)N1CCC2(CC1)OC(=O)C(C)=C2C(=O)Nc1cc(C)ccc1C`, the survival was inactive: 83%.

As to `Cc1cc(Br)ccc1NC(=O)Cn1cnc2sc(C)c(S(=O)(=O)N3CCN(C)CC3)c2c1=O`, the survival is inactive: 160%.

For `CCCN(C(=O)c1cc2ccc3cccnc3c2[nH]1)c1ccc(F)cc1`, the survival was inactive: 99%.

Consider `CCSc1ccccc1C(=O)NCCCn1ccnc1`, for which the survival is inactive: 96%.

For the compound `O=C(c1ccccc1Cl)N(Cc1ccco1)c1ccccn1`, the survival was inactive: 55%.

For the compound `CCCCOc1ccc(CNC(=O)Cc2ccc(NC(=O)N3CCCCc4ccccc43)cc2)cc1`, the survival is inactive: 101%.

On to `COc1ccc(-c2nc(SCC(=O)N3CCN(c4ccc(F)cc4)CC3)n[nH]2)cc1`, for which the survival is inactive: 88%.

On to `CCn1c(=O)n(-c2ccc(F)cc2)c(=O)c2sc3ccccc3c21`, for which the survival was inactive: 88%.

On to `O=C(Oc1ccccc1)c1ccc(F)cc1`, for which the survival was inactive: 74%.

For the compound `CCOC(=O)c1c(Nc2ccc(F)cc2)nnc(-c2ccccc2)c1-c1ccccc1`, the survival was active: -3%.

With `O=C(NC1CC1)C1CCN(C(=O)c2ccc(Cl)cc2)CC1`, the survival is inactive: 86%.

As for `CC(C)(C)OC(=O)N1CCC(c2c(C(=O)N3CCN(c4ccccc4)CC3)cnn2-c2ccccc2)CC1`, the survival is inactive: 81%.

In the case of `Cc1nc2ccc(S(=O)(=O)N(CC(=O)Nc3cccc(Cl)c3)Cc3ccccc3)cc2s1`, the survival was inactive: 70%.

For `Cn1c(O)c(C=NCC2(C)CC(O)CC(C)(C)C2)c(=O)n(C)c1=S` (stereo unspecified), the survival was inactive: 94%.

With `Cc1nn(CC(=O)NCc2ccc(N(C)C)cc2)c(=O)c2c(C)n(-c3ccc(Cl)cc3)nc12`, the survival was inactive: 101%.

On to `CCOc1ccc(NC(=O)CCn2c(=O)c3cccn3c3cccnc32)cc1`, for which the survival was inactive: 85%.

The values above are taken from PubChem BioAssay AID463173 (ICCB-Longwood Screening Facility, Harvard Medical School, 2010).
